# Laboratory results from PubChem BioAssay AID1460 (National Center for Advancing Translational Sciences (NCATS), 2008).
# Values joined by “and” are separate entries in the source; they are usually repeats but may differ in a detail not shown here. Equal entries are not always repeated. The campaign covered roughly 270,000 compounds. About 5,800 (2.1%) were called active. Inconclusive means that the source gave no clear call. Such entries were picked first, then a sample of the others. The call rests on the fitted dose curve; in most records, active means well fitted inhibition curve with a large enough effect; inconclusive means small, poorly fitted or top-dose-only effect; inactive means flat fitted curve, though single readings scatter. Potencies beside an inconclusive call are fits to weak or partial responses and may not hold up.
# Target: Microtubule-associated protein tau (Homo sapiens) (UniProt P10636)
# Chain of UniProt P10636 (P10636 whole entry, looked up): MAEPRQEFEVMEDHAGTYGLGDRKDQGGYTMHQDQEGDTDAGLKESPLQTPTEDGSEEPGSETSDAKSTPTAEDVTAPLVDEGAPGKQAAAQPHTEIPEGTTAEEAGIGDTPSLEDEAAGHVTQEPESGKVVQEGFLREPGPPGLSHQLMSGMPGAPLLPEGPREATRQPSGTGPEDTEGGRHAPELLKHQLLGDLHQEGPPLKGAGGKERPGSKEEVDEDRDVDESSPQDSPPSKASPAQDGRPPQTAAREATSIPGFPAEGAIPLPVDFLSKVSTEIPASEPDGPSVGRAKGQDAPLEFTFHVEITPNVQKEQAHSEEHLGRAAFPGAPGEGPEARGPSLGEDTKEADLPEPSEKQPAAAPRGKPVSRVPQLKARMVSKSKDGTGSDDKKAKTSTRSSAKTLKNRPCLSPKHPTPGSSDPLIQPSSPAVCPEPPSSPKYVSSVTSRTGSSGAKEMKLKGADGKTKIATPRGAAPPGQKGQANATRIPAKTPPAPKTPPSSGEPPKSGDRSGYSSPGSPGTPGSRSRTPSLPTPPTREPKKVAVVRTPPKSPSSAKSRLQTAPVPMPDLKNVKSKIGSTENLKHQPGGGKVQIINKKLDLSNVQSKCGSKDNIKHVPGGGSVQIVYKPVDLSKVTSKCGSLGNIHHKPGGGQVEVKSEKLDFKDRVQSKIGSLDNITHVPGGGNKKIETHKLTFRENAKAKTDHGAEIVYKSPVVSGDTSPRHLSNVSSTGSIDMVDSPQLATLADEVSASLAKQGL
# Assay: qHTS for Inhibitors of Tau Fibril Formation, Thioflavin T Binding; further: nearly all actives have a fitted effect of over 55% in size
# Conditions: recombinant tau K18 P301L, heparin-induced fibrillization, ThT fluorescence; series mostly up to 57.4 µM; activity, negative = inhibition: at the top concentration
# Outline: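 Fibril formation assay: tau K18 P301L at 15 uM with trace Alexa 594 label, heparin inducer 20 uM, pH 7 sodium acetate buffer, 37 C for 6 hr; endpoint ThT signal.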
# On the % scale 0 is the no-effect control and ±100 the full control effect; potency means the concentration at half of the fitted maximal effect; tags describe the fitted curve by direction and shape.
Structure (SMILES),Potency,"activity, negative = inhibition"
O=C1c2ccccc2-c2n[nH]c3cccc1c23,"inconclusive: 11.2 µM [inhibitor, partial curve]",–
Cc1nnc(SCC(=O)N/N=C/c2cc(Cl)c(O)c(Cl)c2)s1,"inconclusive: 22.4 µM [inhibitor, partial curve]",–
CCN(CC)c1ccc(/C=N/NC(=O)c2cccc(S(=O)(=O)Nc3ccccc3OC)c2)cc1,"inconclusive: 11.2 µM [inhibitor, partial curve]",–
CCNC(=O)Cc1ccc(NC(=O)N2CCCCc3ccccc32)cc1,–,inactive: -0.551%
O=C(/C=C/c1ccc(-c2ccccc2[N+](=O)[O-])o1)c1ccco1,active: 17.8 µM,–
CSc1nsc2nc(=O)c(/C=C3\C(C)=Nc4ccc(C)cc43)c(N)n12,"inconclusive: 4.47 µM [inhibitor, partial curve]",–
C=CCN1C(=O)C2(/C(=C(\O)c3ccc4c(c3)OCCO4)C(=O)C(=O)N2CCCOC)c2ccccc21 (stereo not drawn),–,inactive: -2.08%
O=C(NN=C1CCCC1)c1[nH]c2ccc(Cl)cc2c1-c1ccccc1,"inconclusive: 12.6 µM [inhibitor, partial curve, poor fit]",–
O=C(COc1ccccc1-c1ccccc1)Nc1ccc(S(=O)(=O)NCc2ccco2)cc1,–,inactive: -5.51%
Cc1ccc(/C(CSc2nccn2-c2ncc(C(F)(F)F)cc2Cl)=N\O)cc1,–,inactive: -17.4%
Cc1ccc(NCc2nc3ccccc3n2CCOc2ccccc2)cc1,"inconclusive: 12.6 µM [inhibitor, partial curve]",–
CC(=O)NS(=O)(=O)c1ccc(NC(=S)NC(=O)c2ccco2)cc1,–,inactive: -2.28%
CCOC(=O)c1c(O)c2c([nH]c1=O)CCCC2,–,inactive: -9.27%
O=C(O)CNc1nc(-c2ccccc2)nc2c1oc1ccccc12,"inconclusive: 25.1 µM [activator, single point]",–
Cc1ccc(C(=O)NNC(=S)NC(=O)c2ccc(Cl)cc2)cc1,"inconclusive: 8.91 µM [inhibitor, partial curve, poor fit]",–
O=C1CCCC2=C1C(c1ccc(O)cc1)c1c(ccc3ccccc13)N2 (stereo not drawn),"inconclusive: 25.1 µM [inhibitor, partial curve]",–
CCCc1noc2c1/C(=N\O)CC(c1ccccc1)C2 (stereo not drawn),–,inactive: -7.58%
CC(C)[C@H](CO)Nc1nc(Nc2cc(N)cc(Cl)c2)c2ncn(C(C)C)c2n1,"inconclusive: 20 µM [inhibitor, partial curve]",–
O=C1OCCN1C(=O)[C@H]1[C@H](c2ccccc2)C(c2ccccc2)=NN1c1ccccc1,–,inactive: -7.54% [at 81.4 µM]
CN(C(=O)/C(N=Nc1cccc(C(F)(F)F)c1)=C(\O)C(F)(F)F)c1ccccc1,"inconclusive: 31.6 µM [inhibitor, single point]",–
COc1ccccc1-c1ccc(/C=C2\C=CC(=O)O2)o1,"inconclusive: 5.01 µM [inhibitor, partial curve]",–
Cc1sc2ncnc(NCC3(N4CCOCC4)CCCCC3)c2c1C,"inconclusive: 31.6 µM [inhibitor, partial curve, poor fit]",–
CC1(C)CC2(CC(c3ccccc3)Oc3cc(O)ccc32)NC(=O)N1 (stereo not drawn),–,inactive: 1.35%

Structure (SMILES),Potency,"activity, negative = inhibition"
COc1ccc(NCC(=O)N/N=C/c2ccc3c(c2)OCCO3)cc1,"inconclusive: 17.8 µM [inhibitor, partial curve]",–
CS(=O)(=O)N1CCN(c2ccc(NC(=O)c3ccccc3)cc2)CC1,"inconclusive: 2.82 µM [inhibitor, full curve]",–
NCCC[C@@H](CC(=O)N[C@@H]1CCNC[C@H]1C(=O)N[C@H](CC(=O)N[C@@H](CCC(=O)O)CC(=O)O)Cc1c[nH]c2ccccc12)NC(=O)C[C@H](Cc1ccccc1)NC(=O)[C@@H]1CNCC[C@H]1N,–,inactive: -1.27%
CCOC(=O)c1sc2nc(-c3ccco3)c3c(c2c1N)CC(C)(C)OC3,"inconclusive: 15.8 µM [inhibitor, partial curve]",–
Cc1cc(O)c(C=Nc2ccc(Cl)cn2)c(=O)o1,"inconclusive: 14.1 µM [inhibitor, partial curve]",–
CCN(CC)CCOC(=O)c1ccc(NC(=O)c2cn(-c3ccccc3)nc2-c2cccs2)cc1,–,inactive: -2.42%
Cc1cc(NC(=O)CSc2ncc(C(=O)Nc3ccc(F)cc3)c(=O)n2C)no1,–,inactive: -16.2%
CCN(CC)CCNC(=O)c1ccc(Cn2c(=O)c3cccn3c3cccnc32)cc1,–,inactive: -1.93%
Cc1ccc(-c2nc(CS(=O)CC(=O)N3CCN(c4ccc(Cl)cc4)CC3)c(C)o2)cc1 (stereo not drawn),"inconclusive: 3.55 µM [inhibitor, partial curve]",–
CCOC(=O)c1cc(-c2ccc(OC)cc2)n[nH]1,"inconclusive: 44.7 µM [inhibitor, single point]",–
CCCCN(C)C(=S)Nc1ccc2nc(N3CCN(CC)CC3)cc(C)c2c1,"inconclusive: 31.6 µM [inhibitor, single point]",–
CC(=O)Oc1ccc2c(=O)c(Oc3ccccc3)c(C)oc2c1OC(C)=O,"inconclusive: 11.2 µM [inhibitor, partial curve]",–
Cc1oc(C(=O)Nc2ccc(O)cc2)cc1COc1ccccc1,"inconclusive: 8.91 µM [inhibitor, partial curve]",–
CC(=O)OCC(=O)N1CCN(c2ccc([N+](=O)[O-])cc2)CC1,"inconclusive: 4.47 µM [inhibitor, partial curve]",–
C/C(=N\NC1=NCCN1)c1ccc(N)c([N+](=O)[O-])c1,active: 20 µM,–
C/C(=N\Nc1ccccn1)c1ccc2c(c1)OCO2,"inconclusive: 14.1 µM [inhibitor, partial curve]",–
CCC(C)N=C1CC(C)(C)CC(=O)/C1=C(/O)Cc1ccccc1 (stereo not drawn),–,inactive: -4.56%
CCOc1ccc(C2NC(=O)C(C#N)=C(S)N2c2ccc(C)cc2)cc1OC (stereo not drawn),active: 31.6 µM,–
CCc1ccc(C(=O)COC(=O)c2ccc(Cl)nc2)cc1,"inconclusive: 31.6 µM [inhibitor, single point]",–
CCOc1ccccc1NC(=O)c1c(NCc2sccc2C)sc2c1CCCCC2,"inconclusive: 28.2 µM [inhibitor, partial curve]",–
Cc1cc(OCC(=O)C(C)(C)C)c2c(C)c(C)c(=O)oc2c1,–,inactive: 8.6%
COC(=O)[C@@]1(Cc2ccc(OC)cc2)[C@H]2c3cc(C(=O)N(C)C)n(Cc4ccc(OC(F)(F)F)cc4)c3C[C@H]2CN1C(=O)c1ccccc1,"inconclusive: 28.2 µM [inhibitor, single point] and inconclusive: 3.16 µM [inhibitor, full curve, poor fit]",–
CCCCC[C@H](O)/C=C/[C@@H]1[C@@H](C/C=C\CCCC(=O)O)[C@H](O)C[C@H]1O,inactive,–

Structure (SMILES),Potency,"activity, negative = inhibition"
COC(=O)C(=CC(=CN(C)C)C=C(C(=O)OC)C(=O)OC)C(=O)OC,–,inactive: -10.2%
Clc1cccc(/C=N/Nc2nc(Cl)nc3ccccc23)c1,"inconclusive: 3.16 µM [inhibitor, full curve]",–
CCOC(=O)c1oc2cc(O)c(CC)cc2c(=O)c1-c1ccc2c(c1)OCCO2,"inconclusive: 10 µM [inhibitor, partial curve]",–
O=C1C=C(N2CCN(C3=CC(=O)CCC3)CC2)CCC1,active: 25.1 µM,–
COc1cccc([C@@H]2Oc3ccc(OC)cc3C(=O)[C@H]2OC(=O)NCc2ccco2)c1,–,inactive: -4.91%
C=CCOC(=O)C1=C(C)Nc2nnnn2C1c1cc(OC)ccc1OC (stereo not drawn),–,inactive: -2.77%
COc1cc(OC)c(-c2nnc(-c3ccc(OC)c(OC)c3OC)o2)cc1OC,"inconclusive: 20 µM [inhibitor, partial curve]",–
C=CCN1C(=O)CS/C1=C(\C#N)S(=O)(=O)c1ccc(C)cc1,–,inactive: -20.6%
CCOc1ccc(Nc2nc(Cc3nnc(SCC(=O)NC4CCCCC4)n3C)cs2)cc1,"inconclusive: 22.4 µM [inhibitor, partial curve]",–
Cc1cc(N2CCCCC2)nc2ccc(NC(=O)/C=C/c3ccccc3OC(C)C)cc12,"inconclusive: 3.98 µM [inhibitor, full curve]",–
O=C(/C=C/c1ccc(Br)cc1)c1ccco1,"inconclusive: 25.1 µM [inhibitor, partial curve]",–
C[n+]1ccc(/C=C/c2ccccc2O)c2ccccc21,"inconclusive: 15.8 µM [inhibitor, partial curve]",–
CN(C)c1cc(O)c(C(=S)Nc2ccccc2)c(N(C)C)c1,"inconclusive: 14.1 µM [inhibitor, partial curve]",–
CCC(Oc1ccccc1)C(=O)Nc1ccc2oc(-c3ccc(OC)cc3)nc2c1 (stereo not drawn),"inconclusive: 1 µM [inhibitor, partial curve]",–
CCOc1ccc2c(c1)C(c1ccc(C)o1)=NNC(c1ccncc1)=N2,"inconclusive: 10 µM [inhibitor, partial curve]",–
Cc1ccccc1Nc1nnc(SCC(=O)NC(=O)Nc2ccc3c(c2)OCCO3)s1,"inconclusive: 5.62 µM [inhibitor, partial curve, poor fit]",–
Cc1cccc(CSc2cn(CC(=O)N3CCCC3)c3ccccc23)c1,"inconclusive: 25.1 µM [inhibitor, single point]",–
Nc1nc(-c2ccc(F)cc2)cs1,–,inactive: -6.86%
CCOc1ccc(-c2nc(CSCC(=O)N3CCN(c4cccc(OC)c4)CC3)c(C)o2)cc1,"inconclusive: 17.8 µM [inhibitor, partial curve]",–
Cc1ccccc1CNC(=O)Cn1ncn2nc(-c3cccs3)cc2c1=O,–,inactive: -2.27%
O=C(O)c1ccc(-c2cccc([N+](=O)[O-])c2)o1,–,inactive: -15%
CCc1ccc2oc(-c3cccc(NC(=O)c4ccc(N5CCC(C)CC5)c([N+](=O)[O-])c4)c3)nc2c1,"inconclusive: 3.16 µM [inhibitor, full curve]",–
